Assay results: the supplement of paper PMC3334620
Whole data set: some 33,000 sequences, median “E-score (-0.5 to 0.5)” near -0.053, cut for the highest 2% near 0.37. Some of the results follow.

target: Hap1 (UniProt P0CE41); assay: PBM E-score (8-mer binding enrichment) (E-score (-0.5 to 0.5)); higher = stronger / more preferred TF binding; most listed sequences are background and not binding sites; settings: protein concentration: 200 nM; construct: GST-DNA-binding domain
Method in brief: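 Using PURExpress in vitro transcription/translation, GST-tagged yeast transcription factors were made in full-length or DNA-binding-domain form. These were applied at about 100-200 nM to double-stranded universal all-10-mer Agilent arrays, and bound protein was detected with fluorescent anti-GST. Scans were normalised with masliner before the Universal PBM Analysis Suite assigned E-scores to ungapped eight-base words pooled with their reverse complements.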

Sequence of UniProt P0CE41 (P0CE41 whole entry, the tested form may be a part): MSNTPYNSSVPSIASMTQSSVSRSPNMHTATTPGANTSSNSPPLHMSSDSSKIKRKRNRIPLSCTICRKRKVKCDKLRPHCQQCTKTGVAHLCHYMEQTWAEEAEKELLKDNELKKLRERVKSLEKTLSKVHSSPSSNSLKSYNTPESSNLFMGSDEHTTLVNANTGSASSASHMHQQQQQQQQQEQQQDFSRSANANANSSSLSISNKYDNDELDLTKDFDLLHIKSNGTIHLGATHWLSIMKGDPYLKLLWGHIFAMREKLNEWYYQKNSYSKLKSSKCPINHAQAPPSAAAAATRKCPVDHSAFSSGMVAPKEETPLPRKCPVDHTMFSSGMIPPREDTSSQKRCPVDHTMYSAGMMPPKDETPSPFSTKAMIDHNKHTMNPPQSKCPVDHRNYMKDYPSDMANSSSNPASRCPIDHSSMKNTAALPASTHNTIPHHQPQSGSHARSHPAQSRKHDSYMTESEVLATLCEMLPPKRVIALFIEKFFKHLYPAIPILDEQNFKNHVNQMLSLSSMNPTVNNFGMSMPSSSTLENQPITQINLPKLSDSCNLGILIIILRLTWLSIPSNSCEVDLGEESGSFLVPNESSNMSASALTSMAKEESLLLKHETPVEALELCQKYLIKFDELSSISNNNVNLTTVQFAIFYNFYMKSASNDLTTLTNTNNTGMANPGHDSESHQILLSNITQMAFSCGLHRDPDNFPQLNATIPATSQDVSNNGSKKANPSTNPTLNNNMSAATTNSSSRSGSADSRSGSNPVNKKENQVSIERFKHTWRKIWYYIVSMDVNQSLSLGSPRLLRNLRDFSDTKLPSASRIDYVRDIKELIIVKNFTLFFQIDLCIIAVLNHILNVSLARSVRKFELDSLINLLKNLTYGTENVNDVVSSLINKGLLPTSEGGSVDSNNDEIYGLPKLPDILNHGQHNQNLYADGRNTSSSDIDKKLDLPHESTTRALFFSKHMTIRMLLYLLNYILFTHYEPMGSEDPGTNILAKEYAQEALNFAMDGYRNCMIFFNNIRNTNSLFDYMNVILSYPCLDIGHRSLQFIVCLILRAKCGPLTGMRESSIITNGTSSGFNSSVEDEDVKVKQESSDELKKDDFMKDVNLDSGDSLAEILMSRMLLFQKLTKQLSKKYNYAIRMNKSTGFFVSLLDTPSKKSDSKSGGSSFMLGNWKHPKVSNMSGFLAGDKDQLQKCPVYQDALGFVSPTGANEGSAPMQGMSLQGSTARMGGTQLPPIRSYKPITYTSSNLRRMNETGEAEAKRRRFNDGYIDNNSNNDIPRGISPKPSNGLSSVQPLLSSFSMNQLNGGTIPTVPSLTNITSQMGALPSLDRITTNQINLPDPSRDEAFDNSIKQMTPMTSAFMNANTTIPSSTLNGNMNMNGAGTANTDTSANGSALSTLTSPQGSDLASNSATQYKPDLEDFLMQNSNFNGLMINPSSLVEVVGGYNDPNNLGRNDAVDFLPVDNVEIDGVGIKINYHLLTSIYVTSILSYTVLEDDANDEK

Sequence	PBM E-score
AGAGATTA	-0.203
ACCCGACG	0.307
CATAGGAG	-0.259
ACTAACCA	-0.0126
GCGCCTAA	-0.00505
CATGGTGG	-0.137
CGTATTCC	0.0742
GCAGACCC	-0.0632
CGGCAGCC	0.212
AGTCCATA	-0.0281
AATCTTAC	0.119
GATCCGAC	0.273
ACTCGGCT	0.304
AAGTTTGA	0.047
CACGAGCC	-0.164
ACGTCCGA	0.386
AGTCTTAC	-0.185
AGCTTGCA	-0.176
AAGATGTC	-0.0922
AATCGTGT	0.103
CTTTCCAA	0.0301
AAGCACAT	0.0129
AACTCGGA	0.345
AGACGTCA	-0.297
ACAATTTA	-0.221

Sequence	PBM E-score
AACGCACG	0.0654
GAATCTGA	-0.0157
TCACACAA	-0.241
CTCCAGGC	-0.129
CTTGCGGC	0.0935
AATCCCGG	0.397
GGCAGCAA	-0.00972
ATGCGACA	-0.157
ACACCCTC	-0.00479
GGCCGGCC	0.367
CTTCTGCA	-0.0482
GCGAACGA	0.00245
CGAGCGAG	0.175
GTAAGGAA	-0.202
ACCCCGTG	0.158
CGTAATAC	0.124
CCGCTGGA	0.108
ATTATTCG	0.176
GTAGCATA	-0.0458
TTAAAAAA	-0.103
CCGTATCC	0.165
CATGTGCC	-0.067
GTCCCGTA	0.0594
ATCCACGG	0.264
CACACTAC	-0.24

Sequence	PBM E-score
AATTTAAC	0.0595
CTCATGAA	-0.051
AGTTTGTG	-0.0491
ATAAACAA	-0.1
CAGGGGCA	-0.17
CTCCTTCA	-0.223
AGGGATAT	0.012
GTCAAACA	-0.261
CCCATGGC	0.0284
GCGTAACA	0.0744
AATTTGCA	-0.0183
AACTTGCG	-0.00342
ATCAGACA	-0.188
CTAGTTAC	-0.0907
AAGGATTA	-0.111
GTACATTA	-0.0927
AGGTTGAC	-0.0609
AAAGTTTC	-0.105
GAGTCGCA	-0.275
GGCAATGA	-0.0328
CAGGTGAG	-0.342
CACGCTGG	-0.203
CAAGTACA	-0.189
GGCCCCAC	0.0103
CTGACTTC	-0.0182

Sequence	PBM E-score
AGCAACCG	-0.097
CATCAGGG	-0.145
AACGGGCT	0.119
GGTGATTA	0.303
ACCCTCCA	-0.143
AATCGGCC	0.285
CCGATCCA	0.269
AAACCTGT	-0.117
ACTAGCAT	-0.0643
CAGACGGA	0.118
ACATATTC	-0.119
CGCATACC	0.242
AAGGCATG	-0.352
AGGCGTAA	-0.171
ACCTGCAT	-0.1
CTAATAAG	-0.178
ATCCTCAT	-0.243
GGTCCGCA	0.3
AGGCAGTC	-0.124
CCTTCTCC	-0.0851
CCAACGTC	-0.0117
CTCAATTA	-0.221
CGACACGA	0.0811
AACGAAGC	-0.267
CCAATCAC	-0.0231

Sequence	PBM E-score
TCCCGGCA	0.277
TCTAACAA	-0.208
CTTGTATA	-0.133
CCACCCCC	-0.00462
CAAGAAAG	-0.123
AGGAACCA	-0.102
ATGTGCTG	-0.0561
AGTACTGC	-0.199
GTCTGTGA	-0.165
AGCCCTGA	-0.136
AGGAATCA	-0.0386
AATTCTAT	-0.165
CCTTTGCG	0.0464
GAGTCGTA	-0.155
ACTGAATC	-0.173
GGCCCGTA	0.281
GTTGTGTA	-0.218
CTTCACCA	-0.154
ACACTCAG	-0.208
AGGAAATA	0.155
ACAGTGTC	-0.16
TGTCAAAA	-0.0782
AATTGTAT	-0.0787
ATTTTGGA	0.147
CACTTCCC	-0.0515

Sequence	PBM E-score
AAAAAAGG	0.0917
CTCTAGGA	-0.314
CTGAAATC	0.0978
GAAAATCA	-0.0795
CAGGACAA	0.0261
CCGTACGA	0.105
CCGGCCGC	0.299
CCCACGTA	-0.202
AGTCATGC	-0.182
ATATTTAG	-0.0881
GATCCGGA	0.395
ATAGCATC	-0.177
AATTTCGC	0.22
ATACGGCG	0.144
CGCCAGAA	-0.0527
CATTCCAA	-0.225
TTAGGAAA	-0.141
CTAGAAGA	-0.0325
ACCGGCCC	0.329
AAGCTCCA	-0.157
TGGGGCAA	-0.282
AGGAATAC	-0.116
CGGGTATC	0.247
GCGGTCGA	0.163
ATACACAG	-0.146

Sequence	PBM E-score
GGGTTATA	0.0789
CATAAAGC	-0.188
CGGCCACC	0.251
TAACCCCA	0.135
GCATCGAC	-0.0733
CCAATGAC	-0.211
GATCGTTA	-0.0222
ATCAGCTG	-0.257
CCAGGCGA	-0.174
CTTCCGAA	0.324
TCCTAAAA	-0.112
CACCAGAA	-0.265
AGGACACA	-0.0409
GATGACGA	-0.288
AATTGCTG	-0.067
ATACCAAC	0.0295
ACACGGCT	0.146
CCCTTGCA	-0.16
GGAGACGA	0.128
CATACGCG	0.0615
GCCATGAA	-0.231
ATGCGGCC	0.101
GTCAGACA	-0.0693
AGTTGCTG	-0.0744
CATACTCC	0.144

Sequence	PBM E-score
AAGATACG	-0.0621
CGCATAAG	0.143
GCTGAAAC	0.0233
AATGCTGG	-0.0802
ACGGGGCA	-0.00925
AGACTCGC	-0.0685
ATGAGTCG	-0.075
GACAGCTA	-0.249
CCCGCGGA	0.322
ATTCTGGG	-0.223
AAACCAAG	-0.0855
CTCCTCCC	-0.144
AATTGCTA	-0.106
ACCCCCGT	0.126
CCTTACGC	-0.0369
AATTACTA	-0.00109
CATATTAC	0.152
CATTAAGA	-0.202
AGCAGCCC	-0.14
ACATAAAG	-0.0498
GGGCTCTA	0.023
TATGCAGA	-0.201
ACAGGTTC	-0.216
AAGTAGGA	-0.375
CGATACCG	0.309

Sequence	PBM E-score
CCCATCGA	-0.117
GTAAGTGA	-0.0133
CGATATGA	0.213
ACTTGCTA	-0.197
GGTCGGAA	0.265
AGGACGTA	0.00968
ATGCACAG	-0.217
AAAACAGG	-0.36
CAGTCAAC	-0.21
CAGTTTTC	-0.0267
AGCCTGAG	-0.365
AATGTCAA	-0.127
AGACAACC	0.0489
CATGTGGA	-0.207
ATCACACC	0.169
GGGCTCAC	-0.0345
ACCAGGTC	0.0272
AGACGAAC	-0.273
CTCTACAC	-0.029
ATCCGGGA	0.239
GCTCTGAA	-0.135
ATAGTCAC	-0.18
AGTGTCCG	0.258
AGGATATC	0.155
AAGGTCCC	-0.253

Sequence	PBM E-score
ACGGTAAC	0.245
ACGAATCT	0.0898
GCCACAAA	0.0371
CAGACCGA	0.278
CTTGATCA	-0.0583
CGATTCAA	-0.0364
CCTATGTA	-0.201
AGCAGGTA	-0.123
GTATAGAC	-0.156
CAAACCGG	0.236
CGCAAACG	-0.00497
ACCAAGGC	-0.152
CGGCGCTA	0.356
GCAGATGA	-0.18
ATTAAATA	0.131
ATACAGGC	-0.0909
CCTGCAAC	-0.289
ATTATCAG	-0.106
AGATGTAC	-0.243
AGGGTAAC	-0.137
CGATGAGA	0.056
GCTTGGAA	-0.193
AGGTAATG	0.104
AATTTAAA	-0.0116
CTCGTGAC	-0.151

Sequence	PBM E-score
ACGACCAA	-0.162
CACAGAGG	-0.221
GGACCTAC	0.26
ACACTTCG	-0.158
CCTGGCCG	0.0658
AAATTTCT	0.0196
CCTATGCA	-0.262
GCTAGGAA	-0.258
CCTACGCG	0.0464
AGTGCTCG	-0.122
CCAACAGA	-0.15
CACCTACC	-0.171
CAGAAAAA	-0.0996
CGGGTTTA	0.474
AGCGGGGA	0.0437
ACACCGCT	-0.00445
CATTCTAG	-0.409
ATCTCGAG	-0.0933
GGGCTAAA	0.131
ACACGTAC	-0.229
CAACGGTC	0.209
AGAGGCGA	-0.132
AGAGGCAA	-0.0652
GAGCAATC	-0.00019
GGAGGCCA	0.0209

Sequence	PBM E-score
GCCCCATA	-0.00491
ACCTTCTA	-0.239
CTTAGAGC	0.00024
AGCTTCCA	-0.074
ACAGAGGT	-0.234
CGTTGAAC	0.00776
GGGTGGTA	0.0754
AGCGATAA	0.284
ACAGGCCT	-0.198
CGTAACAC	-0.016
GCTTCCGA	0.229
CTCTGTAA	-0.284
ATATGGTG	-0.0575
GACCAGTA	0.00108
CCAACTTC	-0.127
ACCCCCAG	-0.25
GTGAATTA	-0.0515
CGGGGTAA	0.302
CATTCGGA	0.321
CCATCCAA	-0.136
ACAATTTC	-0.0295
ATCTGCCG	0.318
CCACACGC	-0.0115
GACCACGC	-0.063
TCTCGCCA	-0.0825

Sequence	PBM E-score
ACCTGGTC	0.213
CGTGCTAC	-0.0707
CGTTGTTC	0.168
CAAGTAAA	0.0597
CTGGTAGA	-0.2
CAAACGAC	-0.123
AAAGCGTG	-0.117
AGGGCGAA	0.142
CCAGCCCA	-0.12
CCTGAGGC	-0.0848
GGGAAACA	0.112
CCGAACGA	0.313
AGCCCGCG	0.235
ATTTTTTA	0.145
AATGTATG	-0.129
GATCGCCA	-0.0197
TGTCGGAA	0.233
GACCGGAA	0.361
CATCCATG	-0.227
CGGAATAC	0.35
ACACTCTA	-0.138
ATCGTACA	-0.0583
AGGTCTCA	-0.00289
AGGAAGAG	-0.146
CATCCTAG	-0.216

Sequence	PBM E-score
ACCCGTCT	-0.0322
ACGGAGAG	0.284
TCCTCACA	-0.0176
TACTAAAA	-0.0154
GAGAGTGA	-0.147
AAATGTCA	-0.168
CACTCTTA	-0.217
GACACCTC	0.0163
GCGTGTCA	-0.0947
GCCCGGGC	0.434
ACTCCAGA	-0.174
CTTGAAAC	0.0301
CTTCGACA	-0.309
AGAACGAT	-0.199
ACTAGTAG	-0.149
ATGCGCAC	-0.141
TGAGTGCA	-0.175
AAGAAGGA	-0.21
AAGGATAT	0.0796
